Test results reported in the supplement of paper PMC11876631.
± gives the standard deviation of the averaged measurements. Laboratory Escherichia coli strains with one amino-acid change in an essential protein, pooled on minimal glucose agar with carbenicillin or gentamicin at twice the control MIC (plus kanamycin and chloramphenicol for the plasmids), 48 h. Fold change of barcode share against drug-free plates; higher = less susceptible. Active = above 20 in both replicates (the paper's putatively resistant). '<' = one read or none on drug, '>' = one read or none on a drug-free plate. Shares are relative, so most strains fall below 1 when a few take over. Listed are strains with at least 15 reads on both drug-free plates, and hits; most hits rest on fewer reference reads. Replicate rank correlation about 0.5. Edits are read from barcodes.

B1: glyQ V180A (protein)
chain: MQKFDTRTFQGLILTLQDYWARQGCTIVQPLDMEVGAGTSHPMTCLRELGPEPMAAAYVQPSRRPTDGRYGENPNRLQHYYQFQVVIKPSPDNIQELYLGSLKELGMDPTIHDIRFVEDNWENPTLGAWGLGWEVWLNGMEVTQFTYFQQVGGLECKPVTGEITYGLERLAMYIQGVDSAYDLVWSDGPLGKTTYGDVFHQNEVEQSTYNFEYADVDFLFTCFEQYEKEAQQLLALENPLPLPAYERILKAAHSFNLLDARKAISVTERQRYILRIRTLTKAVAEAYYASREALGFPMCNKDK
B2: glyQ V180P (protein)
chain: MQKFDTRTFQGLILTLQDYWARQGCTIVQPLDMEVGAGTSHPMTCLRELGPEPMAAAYVQPSRRPTDGRYGENPNRLQHYYQFQVVIKPSPDNIQELYLGSLKELGMDPTIHDIRFVEDNWENPTLGAWGLGWEVWLNGMEVTQFTYFQQVGGLECKPVTGEITYGLERLAMYIQGVDSPYDLVWSDGPLGKTTYGDVFHQNEVEQSTYNFEYADVDFLFTCFEQYEKEAQQLLALENPLPLPAYERILKAAHSFNLLDARKAISVTERQRYILRIRTLTKAVAEAYYASREALGFPMCNKDK
B3: glyQ V180D (protein)
chain: MQKFDTRTFQGLILTLQDYWARQGCTIVQPLDMEVGAGTSHPMTCLRELGPEPMAAAYVQPSRRPTDGRYGENPNRLQHYYQFQVVIKPSPDNIQELYLGSLKELGMDPTIHDIRFVEDNWENPTLGAWGLGWEVWLNGMEVTQFTYFQQVGGLECKPVTGEITYGLERLAMYIQGVDSDYDLVWSDGPLGKTTYGDVFHQNEVEQSTYNFEYADVDFLFTCFEQYEKEAQQLLALENPLPLPAYERILKAAHSFNLLDARKAISVTERQRYILRIRTLTKAVAEAYYASREALGFPMCNKDK
B4: glyQ V180W (protein)
chain: MQKFDTRTFQGLILTLQDYWARQGCTIVQPLDMEVGAGTSHPMTCLRELGPEPMAAAYVQPSRRPTDGRYGENPNRLQHYYQFQVVIKPSPDNIQELYLGSLKELGMDPTIHDIRFVEDNWENPTLGAWGLGWEVWLNGMEVTQFTYFQQVGGLECKPVTGEITYGLERLAMYIQGVDSWYDLVWSDGPLGKTTYGDVFHQNEVEQSTYNFEYADVDFLFTCFEQYEKEAQQLLALENPLPLPAYERILKAAHSFNLLDARKAISVTERQRYILRIRTLTKAVAEAYYASREALGFPMCNKDK
B5: glyQ V180Q (protein)
chain: MQKFDTRTFQGLILTLQDYWARQGCTIVQPLDMEVGAGTSHPMTCLRELGPEPMAAAYVQPSRRPTDGRYGENPNRLQHYYQFQVVIKPSPDNIQELYLGSLKELGMDPTIHDIRFVEDNWENPTLGAWGLGWEVWLNGMEVTQFTYFQQVGGLECKPVTGEITYGLERLAMYIQGVDSQYDLVWSDGPLGKTTYGDVFHQNEVEQSTYNFEYADVDFLFTCFEQYEKEAQQLLALENPLPLPAYERILKAAHSFNLLDARKAISVTERQRYILRIRTLTKAVAEAYYASREALGFPMCNKDK
B6: glyQ L167A (protein)
chain: MQKFDTRTFQGLILTLQDYWARQGCTIVQPLDMEVGAGTSHPMTCLRELGPEPMAAAYVQPSRRPTDGRYGENPNRLQHYYQFQVVIKPSPDNIQELYLGSLKELGMDPTIHDIRFVEDNWENPTLGAWGLGWEVWLNGMEVTQFTYFQQVGGLECKPVTGEITYGAERLAMYIQGVDSVYDLVWSDGPLGKTTYGDVFHQNEVEQSTYNFEYADVDFLFTCFEQYEKEAQQLLALENPLPLPAYERILKAAHSFNLLDARKAISVTERQRYILRIRTLTKAVAEAYYASREALGFPMCNKDK
B7: glyA V199P (protein)
chain: MLKREMNIADYDAELWQAMEQEKVRQEEHIELIASENYTSPRVMQAQGSQLTNKYAEGYPGKRYYGGCEYVDIVEQLAIDRAKELFGADYANVQPHSGSQANFAVYTALLEPGDTVLGMNLAHGGHLTHGSPVNFSGKLYNIVPYGIDATGHIDYADLEKQAKEHKPKMIIGGFSAYSGVVDWAKMREIADSIGAYLFPDMAHVAGLVAAGVYPNPVPHAHVVTTTTHKTLAGPRGGLILAKGGSEELYKKLNSAVFPGGQGGPLMHVIAGKAVALKEAMEPEFKTYQQQVAKNAKAMVEVFLERGYKVVSGGTDNHLFLVDLVDKNLTGKEADAALGRANITVNKNSVPNDPKSPFVTSGIRVGTPAITRRGFKEAEAKELAGWMCDVLDSINDEAVIERIKGKVLDICARYPVYA

What follows are proteins tested against Escherichia coli (laboratory strain) (assay: barcode share on antibiotic plates over drug-free plates; higher = less susceptible). Details: antibiotic: carbenicillin; 2× MIC (3.1 µg/mL).
Description: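 A pool of E. coli strains, each edited to carry one amino-acid change in an essential protein, was grown for 48 h on minimal glucose agar with or without antibiotic; strain barcodes were sequenced; mean of two replicates.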
With B1 the “fold change of barcode share” value was 0.474 ± 0.13.
For B2, the “fold change of barcode share” value was 0.341 ± 0.018.
For B3, the “fold change of barcode share” value was 0.328 ± 0.06.
In the case of B4, the “fold change of barcode share” value is reported as 0.331 ± 0.092.
For B5, the “fold change of barcode share” value was 0.3 ± 0.061.
B6 was tested, and the “fold change of barcode share” value was 2.37 ± 1.1.
With B7 the “fold change of barcode share” value was > 45.2 [active].

Same assay, conditions: antibiotic: gentamicin; 2× MIC (MIC 0.45 µg/mL)
With B1 the “fold change of barcode share” value was under 0.014.
In the case of B2, the “fold change of barcode share” value is reported as under 0.00367.
In the case of B3, the “fold change of barcode share” value is reported as under 0.00694.
In the case of B4, the “fold change of barcode share” value is reported as 0.00771 ± 0.0063.
For B5, the “fold change of barcode share” value was 0.0111 ± 0.0093.
